The supplement of paper PMC7125110
± gives the standard error. Variants at the floor of the assay are shown more often than the library holds them.

B1: glmS ribozyme (parent)
chain: AUAAAAGCGCCAGAACUACAGAAAUGUAGUUGACGAGGAGGAGGUUUAUCGAAUUUUCGGCGGAUGCCUCCAAA

Tests used:
Details in all cases: with glucosamine-6-phosphate
[1] = variants of: B1; test: self-cleavage kobs at 40 uM GlcN6P; higher = faster cleavage; RNA array
Method in brief: (§1)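 E. coli RNA polymerase transcribed barcoded ribozyme variants in situ on sequenced MiSeq chips, which were tracked via a hybridised Cy3 probe at 37 °C. Tiles were imaged over ~14 h after glucosamine-6-phosphate (40 μM to 10 mM) in HEPES/KCl/Mg(OAc)2 buffer was flowed in. Normalised per-tile medians were fit to one- or two-exponential decays for kobs, and kcat and KM came from weighted Michaelis–Menten fits.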

[2] = variants of: B1; test: self-cleavage kobs at 640 uM GlcN6P; higher = faster cleavage; RNA array
Method in brief: as §1

[3] = variants of: B1; test: self-cleavage kobs at 10000 uM GlcN6P; higher = faster cleavage; RNA array
Method in brief: as §1

[4] = variants of: B1; test: self-cleavage kobs at 160 uM GlcN6P; higher = faster cleavage; RNA array
Method in brief: as §1

[5] = variants of: B1; test: self-cleavage kobs at 2500 uM GlcN6P; higher = faster cleavage; RNA array
Method in brief: as §1

Variant	self-cleavage kobs at 40 uM GlcN6P [1]	self-cleavage kobs at 640 uM GlcN6P [2]	self-cleavage kobs at 10000 uM GlcN6P [3]	self-cleavage kobs at 160 uM GlcN6P [4]	self-cleavage kobs at 2500 uM GlcN6P [5]
G13A C50G G66U U69A	8.64e-05 ± 2.3e-05 s⁻¹	0.000563 ± 0.00026 s⁻¹	0.000117 ± 3e-05 s⁻¹	–	–
C10A G44U	< 1e-05 s⁻¹	< 1e-05 s⁻¹	< 1e-05 s⁻¹	< 1e-05 s⁻¹	< 1e-05 s⁻¹
A12G C58U	< 1e-05 s⁻¹	–	6.35e-05 ± 8.1e-06 s⁻¹	–	1.67e-05 ± 7.9e-06 s⁻¹
C10G U55G	< 1e-05 s⁻¹	–	–	–	–
G13A A14U U45C	< 1e-05 s⁻¹	–	–	–	–
A12G G62U	< 1e-05 s⁻¹	< 1e-05 s⁻¹	–	–	–
C10A U31A	< 1e-05 s⁻¹	< 1e-05 s⁻¹	–	< 1e-05 s⁻¹	–
C11U G13C C16A U49A	< 1e-05 s⁻¹	< 1e-05 s⁻¹	–	< 1e-05 s⁻¹	–
C10U G13C A36C	< 1e-05 s⁻¹	–	–	–	–
G13A A53U	< 1e-05 s⁻¹	7.57e-05 ± 2.4e-05 s⁻¹	–	–	0.000174 ± 4.1e-05 s⁻¹
C11A G63C	< 1e-05 s⁻¹	< 1e-05 s⁻¹	< 1e-05 s⁻¹	–	–
C11G C34A	< 1e-05 s⁻¹	–	< 1e-05 s⁻¹	< 1e-05 s⁻¹	< 1e-05 s⁻¹
G9U A36G A42U G44U	< 1e-05 s⁻¹	–	–	–	–
A12U A33G	< 1e-05 s⁻¹	–	< 1e-05 s⁻¹	< 1e-05 s⁻¹	–
C11G G13A U31A C68U	< 1e-05 s⁻¹	–	< 1e-05 s⁻¹	–	–
C10A G37C G38A A64U U65C	< 1e-05 s⁻¹	–	–	–	< 1e-05 s⁻¹
C11U A42C G62C	< 1e-05 s⁻¹	< 1e-05 s⁻¹	< 1e-05 s⁻¹	–	–
G9U G29U U57G C61U	< 1e-05 s⁻¹	–	–	–	–
C10U G35U G38A A48U	< 1e-05 s⁻¹	–	–	–	–
A12C G29U C67U C71A	< 1e-05 s⁻¹	–	–	–	–
C10G G38A	< 1e-05 s⁻¹	< 1e-05 s⁻¹	–	–	–
C11U A15G G43A C67G	< 1e-05 s⁻¹	–	0.000119 ± 3.5e-05 s⁻¹	–	0.000114 ± 3.9e-05 s⁻¹
C10G G29C A33G G63C	< 1e-05 s⁻¹	–	< 1e-05 s⁻¹	–	< 1e-05 s⁻¹
C11G A64G	< 1e-05 s⁻¹	–	–	< 1e-05 s⁻¹	< 1e-05 s⁻¹
C11G A64C	< 1e-05 s⁻¹	–	< 1e-05 s⁻¹	< 1e-05 s⁻¹	–
C11G U54C	< 1e-05 s⁻¹	–	–	–	–

Variant	self-cleavage kobs at 40 uM GlcN6P [1]	self-cleavage kobs at 640 uM GlcN6P [2]	self-cleavage kobs at 10000 uM GlcN6P [3]	self-cleavage kobs at 160 uM GlcN6P [4]	self-cleavage kobs at 2500 uM GlcN6P [5]
C11U G41A	< 1e-05 s⁻¹	–	–	–	–
C10G G43A	< 1e-05 s⁻¹	< 1e-05 s⁻¹	< 1e-05 s⁻¹	< 1e-05 s⁻¹	–
C11U G43A	< 1e-05 s⁻¹	< 1e-05 s⁻¹	–	< 1e-05 s⁻¹	< 1e-05 s⁻¹
C11A A36G A64U C67U C71U	< 1e-05 s⁻¹	–	–	–	–
C10G G44U C68U C70U	< 1e-05 s⁻¹	–	< 1e-05 s⁻¹	–	–
G9U G32U	< 1e-05 s⁻¹	< 1e-05 s⁻¹	< 1e-05 s⁻¹	< 1e-05 s⁻¹	< 1e-05 s⁻¹
C10A A53C G59A	< 1e-05 s⁻¹	–	–	–	–
C10G G60U C68A	< 1e-05 s⁻¹	–	–	–	–
C10G G63C	< 1e-05 s⁻¹	< 1e-05 s⁻¹	–	< 1e-05 s⁻¹	< 1e-05 s⁻¹
C11U G13A	< 1e-05 s⁻¹	–	6.97e-05 ± 1.7e-05 s⁻¹	–	3.03e-05 ± 1.4e-05 s⁻¹
C11U A39C A48U	< 1e-05 s⁻¹	< 1e-05 s⁻¹	–	< 1e-05 s⁻¹	–
C10G U31C	< 1e-05 s⁻¹	–	–	–	–
A12U G51U U56A U69G	< 1e-05 s⁻¹	–	–	–	–
C11G A12G U46A C70U	< 1e-05 s⁻¹	–	< 1e-05 s⁻¹	–	–
A12U A36U C50U U65G	< 1e-05 s⁻¹	–	< 1e-05 s⁻¹	–	–
A12C A33U C68U	< 1e-05 s⁻¹	–	–	–	–
G9U C16U G38U G43A	< 1e-05 s⁻¹	–	–	–	–
A12C A15G G32C A36C A42U	< 1e-05 s⁻¹	–	–	–	–
C11G C34G G43C G59A	< 1e-05 s⁻¹	–	< 1e-05 s⁻¹	–	–
C10U G32U G40C	< 1e-05 s⁻¹	–	–	–	–
C10U G43A C61A	< 1e-05 s⁻¹	–	< 1e-05 s⁻¹	–	–
G9U G38U G43U C50U	< 1e-05 s⁻¹	–	< 1e-05 s⁻¹	–	–
C10G G29A U30G G41U G43U U49G	< 1e-05 s⁻¹	–	< 1e-05 s⁻¹	–	–
C10U G41U U56C C70U	< 1e-05 s⁻¹	–	–	–	–
C10U G37C A42C	< 1e-05 s⁻¹	–	< 1e-05 s⁻¹	–	< 1e-05 s⁻¹
A12G G13U G40A	< 1e-05 s⁻¹	–	–	–	–

Variant	self-cleavage kobs at 40 uM GlcN6P [1]	self-cleavage kobs at 640 uM GlcN6P [2]	self-cleavage kobs at 10000 uM GlcN6P [3]	self-cleavage kobs at 160 uM GlcN6P [4]	self-cleavage kobs at 2500 uM GlcN6P [5]
A12G G41C A53C	< 1e-05 s⁻¹	–	–	–	–
C11G G40A U45G	< 1e-05 s⁻¹	< 1e-05 s⁻¹	< 1e-05 s⁻¹	–	< 1e-05 s⁻¹
C11U U57C	< 1e-05 s⁻¹	–	5.06e-05 ± 1.6e-05 s⁻¹	< 1e-05 s⁻¹	–
A12C A33C G35A G40U U65G	< 1e-05 s⁻¹	< 1e-05 s⁻¹	–	–	< 1e-05 s⁻¹
C10G A36U	< 1e-05 s⁻¹	< 1e-05 s⁻¹	–	–	< 1e-05 s⁻¹
G9U G38A U56C G63U	< 1e-05 s⁻¹	–	–	–	–
G9U C11A	< 1e-05 s⁻¹	–	–	< 1e-05 s⁻¹	–
C10A G38U	< 1e-05 s⁻¹	–	–	–	–
G9U A36U	< 1e-05 s⁻¹	< 1e-05 s⁻¹	–	–	–
A12C A15U U49A	< 1e-05 s⁻¹	–	–	–	–
A12U C50G G51C	< 1e-05 s⁻¹	–	–	–	–
G13A A48G	< 1e-05 s⁻¹	< 1e-05 s⁻¹	< 1e-05 s⁻¹	< 1e-05 s⁻¹	< 1e-05 s⁻¹
A12U U47C	0.00032 ± 3.3e-05 s⁻¹	0.00299 ± 0.00033 s⁻¹	0.00873 ± 0.0011 s⁻¹	0.000599 ± 0.0001 s⁻¹	0.0111 ± 0.0021 s⁻¹
C10A A39C	< 1e-05 s⁻¹	< 1e-05 s⁻¹	–	–	–
C11U G60C	< 1e-05 s⁻¹	–	–	< 1e-05 s⁻¹	–
G9U A14C G32C A52C U65A	< 1e-05 s⁻¹	–	< 1e-05 s⁻¹	–	< 1e-05 s⁻¹
C10G G43C C58A	< 1e-05 s⁻¹	–	< 1e-05 s⁻¹	–	–
G13A C19A C34G	< 1e-05 s⁻¹	–	–	–	–
A12G A14G U30A U46C U49C U57C	< 1e-05 s⁻¹	–	< 1e-05 s⁻¹	–	< 1e-05 s⁻¹
A12C A15G	0.000302 ± 3.5e-05 s⁻¹	0.00332 ± 0.0006 s⁻¹	0.0142 ± 0.0018 s⁻¹	0.000883 ± 0.00014 s⁻¹	0.00626 ± 0.0015 s⁻¹
C10G U46G	< 1e-05 s⁻¹	< 1e-05 s⁻¹	–	< 1e-05 s⁻¹	–
C10G U30A U46C G59U	< 1e-05 s⁻¹	< 1e-05 s⁻¹	< 1e-05 s⁻¹	< 1e-05 s⁻¹	–
A12U U30C A48G	< 1e-05 s⁻¹	–	–	–	–
C11G U45C	< 1e-05 s⁻¹	< 1e-05 s⁻¹	< 1e-05 s⁻¹	< 1e-05 s⁻¹	< 1e-05 s⁻¹
A12U A53G	0.00255 ± 0.00025 s⁻¹	0.0163 ± 0.0025 s⁻¹	0.125 ± 0.023 s⁻¹	0.00496 ± 0.00086 s⁻¹	–
C11U A36G	< 1e-05 s⁻¹	< 1e-05 s⁻¹	–	< 1e-05 s⁻¹	< 1e-05 s⁻¹

Variant	self-cleavage kobs at 40 uM GlcN6P [1]	self-cleavage kobs at 640 uM GlcN6P [2]	self-cleavage kobs at 10000 uM GlcN6P [3]	self-cleavage kobs at 160 uM GlcN6P [4]	self-cleavage kobs at 2500 uM GlcN6P [5]
C11A A36G G41C C67U	< 1e-05 s⁻¹	< 1e-05 s⁻¹	< 1e-05 s⁻¹	–	< 1e-05 s⁻¹
A12U A36U	< 1e-05 s⁻¹	–	–	–	–
C11G G43U G51A	< 1e-05 s⁻¹	–	< 1e-05 s⁻¹	–	–
A12C U46A A64C	< 1e-05 s⁻¹	–	–	–	–
G9U U30C	< 1e-05 s⁻¹	< 1e-05 s⁻¹	< 1e-05 s⁻¹	< 1e-05 s⁻¹	–
G13A A33G U54G	< 1e-05 s⁻¹	< 1e-05 s⁻¹	< 1e-05 s⁻¹	–	–
G9U U69A	< 1e-05 s⁻¹	< 1e-05 s⁻¹	< 1e-05 s⁻¹	< 1e-05 s⁻¹	< 1e-05 s⁻¹
A12C U46A A48U	< 1e-05 s⁻¹	–	–	–	–
C11A A53C	< 1e-05 s⁻¹	–	–	< 1e-05 s⁻¹	–
C11U G32U	< 1e-05 s⁻¹	–	3.94e-05 ± 5.4e-06 s⁻¹	–	–
C11G C50U	< 1e-05 s⁻¹	< 1e-05 s⁻¹	< 1e-05 s⁻¹	–	–
G9U G29A	< 1e-05 s⁻¹	< 1e-05 s⁻¹	< 1e-05 s⁻¹	< 1e-05 s⁻¹	< 1e-05 s⁻¹
C10G A42C U47A G59U	< 1e-05 s⁻¹	–	–	–	–
C11A G29U G44U U45C C68G	< 1e-05 s⁻¹	< 1e-05 s⁻¹	–	–	< 1e-05 s⁻¹
A12U C16A C34A G38U G51U	< 1e-05 s⁻¹	–	< 1e-05 s⁻¹	–	< 1e-05 s⁻¹
C10U G40A A48C	< 1e-05 s⁻¹	–	–	–	–
C11U A33C A53U U57G G60U	< 1e-05 s⁻¹	–	< 1e-05 s⁻¹	–	–
G9U U55C	< 1e-05 s⁻¹	< 1e-05 s⁻¹	< 1e-05 s⁻¹	–	–
C10G A39C	< 1e-05 s⁻¹	–	< 1e-05 s⁻¹	< 1e-05 s⁻¹	< 1e-05 s⁻¹
C10G C34U G38C A64C C67U	< 1e-05 s⁻¹	–	< 1e-05 s⁻¹	–	–
C10A C11U U31C A33C U54A G60C	< 1e-05 s⁻¹	–	–	–	–
C10G A33G A48U	< 1e-05 s⁻¹	–	< 1e-05 s⁻¹	–	–
C10A A33U G63A	< 1e-05 s⁻¹	< 1e-05 s⁻¹	< 1e-05 s⁻¹	< 1e-05 s⁻¹	–
